For one assay, the system named is HSkMC. The experiment in a line: cytotoxicity call (relative viability < 0.9). As to conditions: 10 µM.
The next assay has as its system HepG2. Nature of the assay: cytotoxicity call (relative viability < 0.9). As to conditions: 10 µM.
The next assay deals with S. aureus RN4220. Nature of the assay: growth inhibition call (relative growth <= 0.2). As to conditions: 50 µM.

This is one part of the list.

The source of these data is the antibiotic and cytotoxicity screens of Wong et al. (2023).

In the case of `COC(=O)[C@@H]1CC(=O)N(C(C)C)C1`, the cytotoxicity call in the assay with HSkMC and with HepG2 was “inactive” each time. For the same compound, in the assay on S. aureus RN4220, the growth inhibition call was “inactive”.
`C=CCOC(=O)[C@H]1[C@@H]2C(=O)O[C@@H](c3ccccc3)[C@@H](c3ccccc3)N2[C@@H](c2ccc(OCCOC(=O)[C@H]3C[C@H]4C(=O)N5CCC[C@H]5C(=O)N4[C@H]3c3cccc(OCCO)c3)cc2)[C@]12C(=O)Nc1ccc(I)cc12`: the cytotoxicity call in the assay on HSkMC and in the assay on HepG2 was “inactive” throughout. The growth inhibition call in the assay with S. aureus RN4220 was “inactive”.
Turning to `COc1ccc(S(=O)(=O)Nc2ccc3c(c2)C(=O)N([C@H](C)CO)C[C@@H](C)[C@@H](CN(C)C(=O)NC2CCCCC2)OCCCC[C@@H](C)O3)cc1`, the cytotoxicity call with HSkMC and in the assay with HepG2 was “inactive” throughout. For the same compound, in the assay on S. aureus RN4220, the growth inhibition call was “inactive”.
As to `Cc1ccc(S(=O)(=O)N[C@H]2CC[C@@H](CC(=O)NCc3ccc(Cl)c(Cl)c3)O[C@H]2CO)cc1`, the cytotoxicity call with HSkMC and in the assay on HepG2 was “inactive” throughout. Further, the growth inhibition call in the assay on S. aureus RN4220 was “inactive”.
Consider `CCc1nc2ccc(C(=O)NCCc3ccccn3)cn2c1N(CC)Cc1cccc(Br)c1`, for which the cytotoxicity call in the assay with HSkMC and with HepG2 was “inactive” in each case. Besides, the growth inhibition call in the assay with S. aureus RN4220 is “inactive”.
As to `C[C@@H]1CN([C@@H](C)CO)C(=O)c2cc(NC(=O)CCN3CCOCC3)ccc2O[C@@H]1CN(C)S(=O)(=O)c1cn(C)cn1`, the cytotoxicity call in the assay with HSkMC and with HepG2 was “inactive” in each case. Moreover, the growth inhibition call with S. aureus RN4220 is “inactive”.
As for `OC[C@H]1O[C@@H]2O[C@H]3[C@H](O)[C@@H](O)[C@@H](O[C@H]4[C@H](O)[C@@H](O)[C@@H](O[C@H]5[C@H](O)[C@@H](O)[C@@H](O[C@H]6[C@H](O)[C@@H](O)[C@@H](O[C@H]7[C@H](O)[C@@H](O)[C@@H](O[C@H]1[C@H](O)[C@H]2O)O[C@@H]7CO)O[C@@H]6CO)O[C@@H]5CO)O[C@@H]4CO)O[C@@H]3CO`, the cytotoxicity call in the assay with HSkMC and in the assay on HepG2 was “inactive” in each case. Moreover, in the assay on S. aureus RN4220, the growth inhibition call is “inactive”.
`C[C@@H]1CN([C@@H](C)CO)C(=O)CCCn2cc(nn2)CO[C@@H]1CN(C)Cc1cccc2c1OCCCO2`: the cytotoxicity call in the assay with HSkMC and in the assay with HepG2 was “inactive” throughout. In the assay with S. aureus RN4220, the growth inhibition call is “inactive”.
Turning to `Cc1ccc(S[C@]2(C(=O)NCC(C)C)CC(=O)N(Cc3ccccc3)[C@@H]2c2ccc(CO)cc2)cc1`, the cytotoxicity call in the assay with HSkMC and with HepG2 was “inactive” in each case. Also, the growth inhibition call in the assay with S. aureus RN4220 is “inactive”.
As for `C[C@@H]1CN([C@H](C)CO)C(=O)CCCn2nncc2CO[C@@H]1CN(C)C(=O)Nc1ccnc(N2CCOCC2)c1`, the cytotoxicity call with HSkMC and in the assay on HepG2 was “inactive” each time. In addition, the growth inhibition call in the assay with S. aureus RN4220 is “inactive”.
As to `Cc1ccc(S(=O)(=O)N(C)C[C@@H]2Oc3ccc(NC(=O)Nc4cccc5ccccc45)cc3CC(=O)N([C@@H](C)CO)C[C@H]2C)cc1`, the cytotoxicity call in the assay with HSkMC and in the assay with HepG2 was “inactive” in each case. Besides, in the assay on S. aureus RN4220, the growth inhibition call is “inactive”.
Take `C[C@@H]1CN([C@@H](C)CO)C(=O)c2cc(NC(=O)Nc3ccc(F)cc3)ccc2O[C@@H](C)CCCCO[C@@H]1CN(C)Cc1ccncc1`: the cytotoxicity call in the assay on HSkMC and with HepG2 was “inactive” throughout. Moreover, the growth inhibition call in the assay with S. aureus RN4220 is “inactive”.
Regarding `C[C@H](CO)N1C[C@H](C)[C@H](CN(C)Cc2ccc(C(F)(F)F)cc2)Oc2c(NS(=O)(=O)c3ccc(Cl)cc3)cccc2C1=O`, the cytotoxicity call in the assay on HSkMC was “active”. Also, the cytotoxicity call with HepG2 was “inactive”. For the same compound, in the assay on S. aureus RN4220, the growth inhibition call is “inactive”.
As to `C[C@H](CO)N1C[C@H](C)[C@@H](CN(C)CC2CCCCC2)OCCCC[C@H](C)Oc2ccc(NC(=O)c3ccccc3)cc2C1=O`, the cytotoxicity call with HSkMC and with HepG2 was “inactive” each time. Also, the growth inhibition call in the assay on S. aureus RN4220 was “inactive”.
Take `CCS(=O)(=O)Nc1ccc2c(c1)C(=O)N(C)C[C@@H](OC)[C@H](C)CN(Cc1ccccn1)[C@@H](C)CO2`: the cytotoxicity call with HSkMC and in the assay on HepG2 was “inactive” each time. Further, the growth inhibition call in the assay on S. aureus RN4220 was “inactive”.
For `C[C@H]1CCCCO[C@H](CN(C)S(=O)(=O)c2cccs2)[C@@H](C)CN([C@@H](C)CO)C(=O)c2cc(NC(=O)Cc3ccccc3)ccc2O1`, the cytotoxicity call with HSkMC and in the assay with HepG2 was “inactive” each time. For the same compound, the growth inhibition call with S. aureus RN4220 is “inactive”.
As to `C[C@@H]1CCCCO[C@@H](CN(C)C(=O)Nc2ccccc2)[C@H](C)CN([C@H](C)CO)C(=O)c2cc(NC(=O)NC3CCCCC3)ccc2O1`, the cytotoxicity call in the assay on HSkMC and with HepG2 was “inactive” each time. In the assay with S. aureus RN4220, the growth inhibition call is “inactive”.
`O=C(O)C[C@H]1C=C[C@@H](NC(=O)c2ccncc2)[C@H](CO)O1`: the cytotoxicity call with HSkMC and with HepG2 was “inactive” each time. In addition, in the assay with S. aureus RN4220, the growth inhibition call was “inactive”.
For the compound `C=CC[C@@H](CC(=O)N[C@@H](CO)Cc1ccccc1)C(=O)NC[C@H](OC(=O)[C@@H](CC=C)Cc1ccc(F)cc1)c1ccccc1`, the cytotoxicity call in the assay with HSkMC and with HepG2 was “inactive” each time. In addition, the growth inhibition call with S. aureus RN4220 is “inactive”.
With `Cc1ccc(S(=O)(=O)N(C)C[C@@H]2OCCCC[C@H](C)Oc3ccc(NC(=O)Nc4ccc5c(c4)OCO5)cc3C(=O)N([C@H](C)CO)C[C@@H]2C)cc1`, the cytotoxicity call in the assay on HSkMC and in the assay with HepG2 was “inactive” in each case. The growth inhibition call in the assay on S. aureus RN4220 was “inactive”.
Consider `C[C@@H]1CCCCO[C@@H](CN(C)CC2CCCCC2)[C@H](C)CN([C@H](C)CO)C(=O)c2cc(NC(=O)c3ccncc3)ccc2O1`, for which the cytotoxicity call in the assay on HSkMC and in the assay on HepG2 was “inactive” throughout. Moreover, in the assay with S. aureus RN4220, the growth inhibition call was “inactive”.
Turning to `O=S1(=O)C[C@H](O)[C@@H](N2CCN(CCO)CC2)C1`, the cytotoxicity call in the assay on HSkMC and in the assay on HepG2 was “inactive” in each case. Moreover, the growth inhibition call with S. aureus RN4220 is “inactive”.
On to `N=C(N)c1ccc(OCCCCCOc2ccc(C(=N)N)cc2)cc1.O=S(=O)(O)CCO.O=S(=O)(O)CCO`, for which the cytotoxicity call in the assay on HSkMC (human skeletal muscle cells) is “inactive”. For the same compound, in the assay with HepG2, the cytotoxicity call was “active”. Also, the growth inhibition call with S. aureus RN4220 is “active”.
